# Among all 310,000 compounds or so, about 2,200 (0.71%) showed an effect of 50% or more. Effects have a minus sign here. Some of the results follow.
# Biological target: human ether-à-go-go-related gene (hERG) potassium channel (human, UniProt Q12809)
# Assay: primary screen, population patch clamp on CHO cells stably expressing hERG
# Chain of human ether-à-go-go-related gene (hERG) potassium channel (Q12809 whole entry, looked up): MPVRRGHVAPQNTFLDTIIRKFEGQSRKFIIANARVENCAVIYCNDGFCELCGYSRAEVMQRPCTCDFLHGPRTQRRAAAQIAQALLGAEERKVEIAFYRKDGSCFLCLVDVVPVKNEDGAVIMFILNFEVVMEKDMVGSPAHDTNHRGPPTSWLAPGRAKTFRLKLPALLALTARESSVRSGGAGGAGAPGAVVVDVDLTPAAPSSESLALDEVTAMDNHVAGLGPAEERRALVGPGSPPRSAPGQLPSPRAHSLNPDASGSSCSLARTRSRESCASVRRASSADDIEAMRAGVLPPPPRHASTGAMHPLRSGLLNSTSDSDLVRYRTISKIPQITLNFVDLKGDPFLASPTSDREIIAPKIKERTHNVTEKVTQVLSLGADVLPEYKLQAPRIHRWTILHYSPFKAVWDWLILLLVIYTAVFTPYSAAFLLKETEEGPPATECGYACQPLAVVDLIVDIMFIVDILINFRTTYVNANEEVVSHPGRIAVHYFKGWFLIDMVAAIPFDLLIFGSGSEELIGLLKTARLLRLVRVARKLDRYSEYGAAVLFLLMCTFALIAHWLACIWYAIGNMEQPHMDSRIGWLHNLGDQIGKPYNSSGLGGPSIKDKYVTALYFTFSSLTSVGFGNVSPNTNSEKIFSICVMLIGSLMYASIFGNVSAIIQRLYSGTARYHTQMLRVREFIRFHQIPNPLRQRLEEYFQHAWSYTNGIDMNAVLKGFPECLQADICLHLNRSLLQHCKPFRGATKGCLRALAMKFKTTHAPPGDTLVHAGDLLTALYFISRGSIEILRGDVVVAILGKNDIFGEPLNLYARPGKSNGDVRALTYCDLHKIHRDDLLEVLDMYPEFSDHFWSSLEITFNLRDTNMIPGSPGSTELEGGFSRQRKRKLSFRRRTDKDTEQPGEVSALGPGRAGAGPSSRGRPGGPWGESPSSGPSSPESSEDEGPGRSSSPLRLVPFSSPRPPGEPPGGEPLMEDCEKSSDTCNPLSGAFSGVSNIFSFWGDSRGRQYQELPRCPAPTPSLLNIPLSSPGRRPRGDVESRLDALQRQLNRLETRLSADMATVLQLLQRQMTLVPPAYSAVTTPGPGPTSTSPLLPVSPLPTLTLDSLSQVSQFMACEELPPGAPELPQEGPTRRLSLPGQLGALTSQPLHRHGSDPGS
row,SMILES,"hERG current change (%, negative = inhibition) at 1uM [%]"
1,O=C(NCC(=O)N1CCN(c2ccccc2O)CC1)c1ccc2c(c1)OCO2,2.18
2,O=S(=O)(Nc1cccc(-c2ccc(N3CCCCCC3)nn2)c1)c1cccc(F)c1,14.3
3,CC(C)C[C@H](CO)Nc1nc(N(C)c2cccc(Cl)c2)c2ncn(C(C)C)c2n1,6.77
4,CSc1nsc(SCC(=O)Nc2ccccc2F)n1,12.2
5,O=C(NCc1ccccn1)c1ccc(Cl)c(S(=O)(=O)N2CCOCC2)c1,-5.84
6,Cc1oc2c(c(C)cc3oc(=O)c(CC(=O)NCC(=O)NCC(=O)NCC(C)O)c(C)c32)c1C (stereo not shown),12.6
7,CS(=O)(=O)NCc1ccc(C(=O)NC2CCCCC2)cc1,14.8
8,Cc1ccc(NC(=O)NC2CC(=O)N(c3ccc4c(c3)OCCO4)C2)c(C)c1 (stereo not shown),12.5
9,CCCC(=O)N1CCC(O)(c2cccc(F)c2)CC1,10.4
10,c1ccc2c(NCCc3c[nH]c4ccccc34)c3ccccc3nc2c1,-48.8
11,CC(=O)COC(=O)C1CC(=O)N(c2ccc(C)c(C)c2)C1 (stereo not shown),0.273
12,CCN(CC)CC(=O)Nc1c(C#N)cnn1-c1ccccc1,13.2
13,CCN(CC)c1ccc(NC(=O)COC(=O)C23CCC(=O)N2c2ccccc2S3)cc1 (stereo not shown),6.09
14,O=C(O)CCn1[nH]c(=O)ccc1=O,13.6
15,COc1cccc2c(=O)n(CC(=O)NC3CCCCC3)ccc12,12.3
16,Cn1ncc2c(NNC(=O)Cc3cccc4ccccc34)ncnc21,6.41
17,CCc1cc(Cn2nc(-c3ccccc3)cc2C(=O)NCCOC)on1,-2.49
18,OCCNc1ncnc2c1c(-c1ccccc1)c(-c1ccccc1)n2Cc1ccco1,7.19
19,O=C(NCc1ccccc1)C(Cc1ccccc1)NS(=O)(=O)c1cccc2nsnc12 (stereo not shown),-1.02
20,COc1ccc(Nc2nc(NCCO)nc(OC)n2)cc1,12.4
21,O=C1CC(c2ccc(O)c(O)c2)Oc2c1ccc(O)c2O (stereo not shown),-0.256
22,O=C(NNS(=O)(=O)c1ccccc1)c1ccc(F)cc1,12.8

row,SMILES,"hERG current change (%, negative = inhibition) at 1uM [%]"
1,O=[N+]([O-])c1cccc(-c2ccc(C(=S)N3CCN(c4ccc(F)cc4)CC3)o2)c1,18.3
2,CCn1nc(C)c(NC(=O)/C=C/c2cnn(C)c2C)c1C,4.58
3,Cc1cc(C(=O)NC(C)C2CCCO2)c(C)o1 (stereo not shown),18.1
4,CCOC(=O)Cn1cc(Cl)cc(C(=O)Nc2ccccc2)c1=O,-12.5
5,CCOC(=O)C(C(=O)Nc1ccccc1C)C1CCCCC1 (stereo not shown),17.9
6,COc1ccc(C(=O)NCCS(=O)(=O)NCc2ccccc2)cc1,18.6
7,Brc1ccc2c(c1)C(C1=NCCN1)c1ccccc1CS2.O=C(O)/C=C\C(=O)O (stereo not shown),-6.4
8,COc1ccccc1C#Cc1ccc2c(=O)c3ccccc3n(C)c2c1,8.94
9,O=C(NCCOc1nc(N2CCCCC2)nc(N2CCCCC2)n1)Nc1ccccc1,19.7
10,CC(C)(C)n1nnnc1CN1CCN(C(c2ccccc2)c2ccccc2)CC1,10.4
11,CN1C(=O)CCC(CCC(=O)O)(c2ccccc2O)C1=O (stereo not shown),15.9
12,Cc1ccc(S(=O)(=O)N(C)CC(=O)Oc2ccc(-c3nnco3)cc2)cc1,19.2
13,COc1ccc(S(=O)(=O)N2Cc3ccccc3CC2C(=O)O)cc1 (stereo not shown),5.89
14,CC(C)(C)c1ccc(C(=O)O)c(C(=O)c2ccccc2)c1,-6.15
15,COc1cc(/C=N/N2C(=O)C3C4C=CC(CC4)C3C2=O)ccc1O (stereo not shown),5.16
16,CCOC(=O)c1c(-c2ccc(C)o2)csc1NC(=O)COC(=O)c1ccc(NC(N)=O)cc1,1.57
17,O=C(NCCN1CCCCC1)c1ccc2c(c1)OCCO2,11.3
18,O=C(O)c1ccc(COc2ccc(Cl)cc2)o1,13.1
19,Cn1cnc([N+](=O)[O-])c1Sc1ncccc1N,5.62
20,O=C1C2=C(CCCC2)C(=O)N1CNc1ccccc1,13.4
21,Cc1ccccc1-c1nc(CS(=O)(=O)CC(=O)N2CCN(C)CC2)c(C)o1,8.35
22,CCCn1c(SCC(=O)c2cc(C)n(-c3ccc4c(c3)OCO4)c2C)n[nH]c1=O,-0.109

row,SMILES,"hERG current change (%, negative = inhibition) at 1uM [%]"
1,CCOC(=O)c1ccc(C(=O)NNC(=O)C2C3C=CC(C3)C2C(=O)O)cc1 (stereo not shown),11.9
2,O=C(NCCN1CCOCC1)c1cc(-c2cccs2)on1,-1.23
3,COc1cc2ccc(=O)oc2cc1OCC(O)C(C)(C)O (stereo not shown),3.03
4,COc1ccc(C(=O)NC(=S)Nc2ccc(Cc3ccncc3)cc2)cc1,16.4
5,CC(C)CCn1nc(C(=O)Nc2nc3c(s2)CCCC3)c2ccccc2c1=O,12
6,c1csc(-c2nn3cnnc3c3ccccc23)c1,-6.16
7,COc1ccc(OC)c([N+](=O)[O-])c1C(N)=O,13.4
8,O=C(O)c1cc(-c2ccccc2)n(-c2ccccc2C(=O)O)n1,8.04
9,CCOC(=O)N1CCN(C(=O)c2ccc3c(c2)N(Cc2ccccc2)CCS3)CC1,1.16
10,COc1cc(NC(=O)Nc2ccc(C)cc2)cc([N+](=O)[O-])c1,10.9
11,O=S(=O)(Nc1cc(Sc2cccc3cccnc23)c(O)c2ccccc12)c1ccc(F)cc1,13.4
12,C=CCc1ccc(OCCCCCN2CCOCC2)c(OC)c1.O=C(O)C(=O)O,5.72
13,COc1ccc(NC2(c3ccccc3)OC(=O)c3ccccc32)cc1 (stereo not shown),10.3
14,COc1ccc(OC)c(/C=N/NC(=O)c2cc(-c3ccc(C)o3)nc3ccccc23)c1,15.1
15,O=C(c1ccc(Cn2c(=S)[nH]c3ccc(N4CCOCC4)cc3c2=O)cc1)N1CCC(N2CCCCC2)CC1,10.7
16,Cc1ccc(C(=O)Nc2cccc(-c3cn4ccccc4n3)c2)cc1,5.57
17,CC(C)c1ccc(S(=O)(=O)N2CCN(C(=O)c3cc(-c4ccccc4)n[nH]3)CC2)cc1,-3.64
18,COc1cccc(NC(=O)N(CCCN2CCOCC2)C(C)c2cc3cccc(OC)c3o2)c1 (stereo not shown),0.054
19,COCCNC(=O)CN1C(=O)CN=C(c2ccccc2)c2ccccc21,-12.6
20,CCCCCCCNC1=CC(=O)CC(c2ccco2)C1 (stereo not shown),-77.6
21,CCOC(=O)c1cc(C(=O)OCC)c2cccc(C)n2c1=O,4.74
22,O=C(NCCC1=CCCCC1)C1CCN(C(=O)c2ccc(Br)cc2)CC1,1.8

row,SMILES,"hERG current change (%, negative = inhibition) at 1uM [%]"
1,Nc1c(-c2ccccc2)c(CSc2nc3ccccc3[nH]2)nn1-c1ccc(C(=O)O)cc1,12.2
2,Cc1c(OCC(=O)NCc2cccnc2)ccc2c3c(c(=O)oc12)CCC3,0.748
3,Cc1ccccc1NC(=O)CSc1[nH]c(=O)cc(C)c1C#N,8.02
4,COCCNC(=O)c1onc(CSc2ccccc2C)c1C(=O)O,9.95
5,COc1ccc(C(=O)C2CCCN(Cc3c(O)cccc3OC)C2)cc1OC (stereo not shown),-7.05
6,O=C(Nc1cc(Sc2nc3ccccc3s2)cc([N+](=O)[O-])c1)c1ccccc1F,11.2
7,O=C(COC(=O)c1ccc(Br)cc1)NC1CCCC1,3.56
8,C#CCOCCOCCOCCNc1nc(N2CCOCC2)nc(N2CCN(C(=O)[C@H](Cc3cc4ccccc4[nH]3)n3cc([C@@H](N)C(C)CC)nn3)CC2)n1.Cl (stereo partly shown),4.44
9,CC1CCCC(NC(=O)c2ccc(CNc3c(N4CCCC4)c(=O)c3=O)cc2)C1C (stereo not shown),13.8
10,COc1ccccc1C(=O)NCCC(=O)NC1CCCC(C)C1C (stereo not shown),-17.7
11,O=C(O)CC/C(=N\NC(=O)CNC(=O)c1cccc(Cl)c1)c1ccccc1,4.05
12,COC(=O)C1=C(C(=O)OC)[C@@H]2N(C)c3ccccc3[C@@]23C[C@@H](C(=O)OC)N(C(=O)c2ccc(Br)cc2)C3=N1,7.04
13,CCN1CCN(Cc2cc(=O)oc3ccc(C)cc23)CC1,11.9
14,CCC(=O)N1CCc2cc(S(=O)(=O)CCC(=O)NCc3ccccc3OC)ccc21,13.8
15,COc1ccc(CC2(CO)CCN(C(C)Cc3ccc(Cl)cc3)CC2)cc1 (stereo not shown),-80
16,CC(NC(=O)c1ccco1)C(=O)N1CCN(c2cccc(Cl)c2)CC1 (stereo not shown),23.6
17,COc1ccc(CP(=O)(c2ccccc2)c2ccccc2)cc1,10.8
18,CCn1cc(CN2CCC(C(=O)Nc3ccc(Oc4ccccc4F)cc3)CC2)c(C)n1,-26.7
19,CCN(Cc1ccccc1)Cc1c(C)[nH]c2c(C)c(C)ccc2c1=O,-10.8
20,CCC(=O)N1N=C2C3CCN(CC3)C2C1c1ccccc1 (stereo not shown),-12.3
21,O=C(CN1C(=O)C2C3CCC(C3)C2C1=O)NCc1ccco1 (stereo not shown),15
22,COc1cc(/C=C2\CCn3c2nc2cc(C(=O)O)ccc2c3=O)ccc1OC(F)F,14.5

# From article PMC4336329 (PLoS ONE, 2015)
